Results as given in paper PMC4336329 (PLoS ONE, 2015).
About 2,200 (0.71%) of roughly 310,000 compounds showed an effect of 50% or more. Effects have a minus sign here. This is one part of the list.

biological target: human ether-à-go-go-related gene (hERG) potassium channel (human, UniProt Q12809); assay: primary screen, population patch clamp on CHO cells stably expressing hERG
Sequence (Q12809 whole entry, looked up): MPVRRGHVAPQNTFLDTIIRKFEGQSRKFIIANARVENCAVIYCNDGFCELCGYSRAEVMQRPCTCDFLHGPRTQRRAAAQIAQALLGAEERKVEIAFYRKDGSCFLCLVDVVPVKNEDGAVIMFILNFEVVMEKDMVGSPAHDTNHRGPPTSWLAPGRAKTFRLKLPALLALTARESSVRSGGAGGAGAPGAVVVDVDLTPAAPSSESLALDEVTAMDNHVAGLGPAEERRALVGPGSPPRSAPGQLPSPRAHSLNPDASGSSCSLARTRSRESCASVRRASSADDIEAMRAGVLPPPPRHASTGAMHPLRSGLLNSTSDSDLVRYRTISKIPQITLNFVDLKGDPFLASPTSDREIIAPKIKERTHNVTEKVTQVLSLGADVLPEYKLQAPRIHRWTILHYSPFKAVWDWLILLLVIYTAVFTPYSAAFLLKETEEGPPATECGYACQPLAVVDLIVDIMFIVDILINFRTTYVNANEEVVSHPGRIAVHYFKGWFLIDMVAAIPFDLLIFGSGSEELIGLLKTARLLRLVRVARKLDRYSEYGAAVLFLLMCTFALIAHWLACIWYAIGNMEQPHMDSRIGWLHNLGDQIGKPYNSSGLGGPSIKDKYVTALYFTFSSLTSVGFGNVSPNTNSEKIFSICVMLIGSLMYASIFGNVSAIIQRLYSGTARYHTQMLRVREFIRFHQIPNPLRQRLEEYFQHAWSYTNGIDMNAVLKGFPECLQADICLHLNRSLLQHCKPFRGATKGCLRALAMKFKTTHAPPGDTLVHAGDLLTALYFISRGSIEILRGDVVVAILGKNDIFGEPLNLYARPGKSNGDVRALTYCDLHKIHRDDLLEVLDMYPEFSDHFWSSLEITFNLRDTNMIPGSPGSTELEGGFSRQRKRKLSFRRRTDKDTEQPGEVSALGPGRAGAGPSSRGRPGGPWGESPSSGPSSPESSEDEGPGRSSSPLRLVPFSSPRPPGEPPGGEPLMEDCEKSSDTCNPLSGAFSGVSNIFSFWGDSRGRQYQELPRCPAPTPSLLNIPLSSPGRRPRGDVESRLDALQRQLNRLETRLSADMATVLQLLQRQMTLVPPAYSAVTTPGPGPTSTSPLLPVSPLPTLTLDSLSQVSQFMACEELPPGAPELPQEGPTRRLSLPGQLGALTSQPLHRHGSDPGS

Structure (SMILES) | hERG current change (%, negative = inhibition) at 1uM
COc1ccc(CCN2C(=O)CC(NCCc3ccc(S(N)(=O)=O)cc3)C2=O)cc1OC (stereo not shown) | 13.9%
CCC1CSC(Nc2ccc(C(=O)/C=C/c3ccc(Br)cc3)cc2)=N1 (stereo not shown) | 4.9%
C/C(=N\NC(=S)NC1CCCCC1)c1ccc(O)cc1 | -4.36%
Cc1ccc(N2C(=O)CC(Nc3cccc4ccccc34)C2=O)cc1 (stereo not shown) | 17.9%
O=C(NCCCn1ccnc1)/C(=C\c1cccs1)NC(=O)c1ccccc1 | -19.1%
CC(=O)Oc1ccccc1C1OC(=O)c2ccccc2N1C(C)=O (stereo not shown) | 10.7%
COc1ccccc1N1CCN(CC(=O)NCCc2ccc(S(N)(=O)=O)cc2)CC1 | 6.5%
O=C(N/N=C/c1ccc(N2CCCCC2)o1)c1ccccc1[N+](=O)[O-] | 16.3%
Cc1ccc(C(=O)Oc2ccccc2C(=O)N2CCOCC2)cc1 | 8.54%
O=C(c1ccc(CS(=O)c2ccccc2Cl)o1)N1CCOCC1 (stereo not shown) | 5.28%
CC(C)(C)c1ccc(S(=O)(=O)Nc2ccc3c(c2)COC3=O)cc1 | 12.8%
Cc1nc2scc(C)n2c(=O)c1S(=O)(=O)N1CCN(c2cccc(C(F)(F)F)c2)CC1 | 9.55%
O=C1NC(=O)N(CCC2=CCCCC2)C(=O)/C1=C/c1cccs1 | 11.7%
CNC(=S)NNC(=O)c1cccn(Cc2cccc(C(F)(F)F)c2)c1=O | 15.2%
Cc1ccc2nc(-c3ccncc3)c(NC3CCCC3)n2c1 | -9.73%
Nc1cc(C(F)(F)F)ccc1OCC1CCCO1 (stereo not shown) | 8.02%
CCN(CC)C(=O)Cn1nnc(-c2ccc(S(C)(=O)=O)cc2)n1 | 15%
CCN(CC)CCN1C(=O)c2ccccc2NC1c1ccc(F)cc1 (stereo not shown) | -30.5%
O=C(NCCNS(=O)(=O)c1ccccc1)N1CCOCC1 | 6.45%
CCOC(=O)C1(C)C=C(Nc2ccc(OC)cc2)C(=O)N1c1ccc(OC)cc1 (stereo not shown) | 12.3%
Cc1cc2cc(CCNC(=O)c3ccc(C)c([N+](=O)[O-])c3)c(=O)[nH]c2cc1C | 8.12%
CN(Cc1ccc(F)cc1)C(=O)c1cccc(S(=O)(=O)NCc2ccccc2)c1 | 3.13%
Cc1csc(SCC(=O)Nc2sccc2C(N)=O)n1 | 12.5%
CC1CCN(C(=O)CSCC(=O)O)CC1 | 15.3%
O=[N+]([O-])c1ccccc1S(=O)(=O)N1CCSCC1 | 9.46%
